We go through 58 molecules from article PMC4336329 (PLoS ONE, 2015).

The campaign covered roughly 310,000 compounds. About 2,200 (0.71%) showed an effect of 50% or more. The effect is printed as a negative number. Some of the results follow.

Sequence of human ether-à-go-go-related gene (hERG) potassium channel (Q12809 whole entry, looked up): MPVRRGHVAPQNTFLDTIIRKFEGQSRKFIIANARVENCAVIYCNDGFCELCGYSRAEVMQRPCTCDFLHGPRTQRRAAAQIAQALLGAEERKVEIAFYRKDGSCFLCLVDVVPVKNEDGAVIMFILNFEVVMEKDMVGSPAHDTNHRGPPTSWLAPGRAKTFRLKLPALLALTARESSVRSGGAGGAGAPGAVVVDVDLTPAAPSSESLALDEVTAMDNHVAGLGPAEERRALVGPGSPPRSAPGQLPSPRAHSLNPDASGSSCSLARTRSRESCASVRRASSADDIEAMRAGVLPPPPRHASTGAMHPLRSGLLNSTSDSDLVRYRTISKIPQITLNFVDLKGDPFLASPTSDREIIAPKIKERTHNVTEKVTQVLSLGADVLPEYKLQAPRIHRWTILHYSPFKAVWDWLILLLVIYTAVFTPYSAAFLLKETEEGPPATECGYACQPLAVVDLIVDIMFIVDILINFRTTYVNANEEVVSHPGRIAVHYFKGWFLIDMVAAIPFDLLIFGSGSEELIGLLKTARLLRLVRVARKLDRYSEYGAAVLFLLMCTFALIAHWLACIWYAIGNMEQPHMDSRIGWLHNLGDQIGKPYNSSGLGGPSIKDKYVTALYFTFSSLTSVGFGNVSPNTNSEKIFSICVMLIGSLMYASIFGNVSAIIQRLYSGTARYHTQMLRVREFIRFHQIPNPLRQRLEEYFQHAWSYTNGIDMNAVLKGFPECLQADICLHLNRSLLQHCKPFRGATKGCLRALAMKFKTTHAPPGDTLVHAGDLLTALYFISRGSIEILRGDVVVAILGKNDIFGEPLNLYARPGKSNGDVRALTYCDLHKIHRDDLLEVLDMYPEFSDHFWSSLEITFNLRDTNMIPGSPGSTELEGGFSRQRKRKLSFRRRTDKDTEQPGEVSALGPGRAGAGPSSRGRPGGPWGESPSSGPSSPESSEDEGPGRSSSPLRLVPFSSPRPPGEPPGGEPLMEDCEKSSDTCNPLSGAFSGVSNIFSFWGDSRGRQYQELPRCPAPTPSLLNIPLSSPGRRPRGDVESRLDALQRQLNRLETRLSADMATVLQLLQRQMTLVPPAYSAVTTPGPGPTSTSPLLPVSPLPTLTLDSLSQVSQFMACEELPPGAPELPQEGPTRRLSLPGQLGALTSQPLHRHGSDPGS

This experiment addresses human ether-à-go-go-related gene (hERG) potassium channel (human, UniProt Q12809). Nature of the experiment: primary screen, population patch clamp on CHO cells stably expressing hERG.
As to `CCN1C(=O)[C@H]2[C@@H](c3ccc(Cl)cc3)N3C(=O)CN(CC4CC4)C(=O)[C@@]3(C)[C@H]2C1=O`, the “hERG current change (%, negative = inhibition) at 1uM” value is recorded as -1.33%.

Regarding `COc1ccc(C(=O)NCc2ccncc2)cc1OC`, the “hERG current change (%, negative = inhibition) at 1uM” value was 17.1%. The result for `O=C(NCc1ccccc1Cl)c1ccc2nnsc2c1` reads 14.4%; that for `CCCCN(C)C(=O)c1cn(CC)c2ccc(S(=O)(=O)N(C)C)cc2c1=O`, 10.2%; that for `COc1ccc(/C=N/NC(=O)CCc2n[nH]c(=O)[nH]c2=O)cc1O`, 8.82%. The result for `CCCCCc1nc2c(c(=O)c3ccccc3n2C)c(=O)n1C1CCCCCC1` reads 20.1%.

In the case of `S=C(NC1CCCCC1)N1CCn2cccc2C1c1cccnc1` (stereo not shown), the “hERG current change (%, negative = inhibition) at 1uM” value is reported as 8.79%. The result for `O=C(Nc1ccccc1-c1ccccc1)C1CCCCC1` reads 4.9%. For `Cc1nn2c(NCCCN(C)C)c3c(nc2c1-c1ccccc1)CCCC3` the value was 3.47%; for `O=C(O)c1ccccc1-c1ccccc1C(=O)NCc1ccccc1F`, 15.8%.

With `CNc1ccccc1C(=O)OC`, the “hERG current change (%, negative = inhibition) at 1uM” value came to 12.8%. The result for `CN(CC(=O)NNC(=O)c1cccnc1)S(=O)(=O)c1cc(Cl)ccc1Cl` reads 15%. For `O=[N+]([O-])c1ccc2nc(SCc3cn4cccnc4n3)[nH]c2c1` the value was -5.33%; for `CCN1CCN(C(=O)c2ccc3c(c2)N(Cc2ccccc2)C(=O)c2ccccc2S3=O)CC1` (stereo not shown), 1.19%. For `COC(=O)c1cc(-c2ccc(Br)cc2)c2c(=O)n(C)c(=O)n(C)c2n1` the value was 11.7%; for `COCc1cc(C)nc(NC2CCCCC2)c1C#N`, -2.62%. Take `Cc1ccc(F)cc1NC(=O)CN1C(=O)NC2(CCCc3ccccc32)C1=O` (stereo not shown): the “hERG current change (%, negative = inhibition) at 1uM” value is 4.17%.

Turning to `CCC(C)(C)n1nnnc1CN1CCSCC1.Cl`, the “hERG current change (%, negative = inhibition) at 1uM” value is given as 14%.

As for `CCOC(=O)c1sc(=NC(=O)c2ccc(OC)c(OC)c2)n(C)c1C`, the “hERG current change (%, negative = inhibition) at 1uM” value is recorded as 9.97%. For `N#CCC(=O)Nc1nc(-c2ccc3c(c2)OCCO3)cs1`, the “hERG current change (%, negative = inhibition) at 1uM” value amounted to 8.5%. On to `CC(O)[C@H]1CN=C(N)N1CC(C)(C)C` (stereo partly shown), for which the “hERG current change (%, negative = inhibition) at 1uM” value came out at 16.1%. The result for `CC1CN(C(=O)c2ccc(N3CCCCC3)c([N+](=O)[O-])c2)CC(C)O1` (stereo not shown) reads 6.28%; that for `CCOc1ccc(NC(=O)COc2ccc(C(=O)NC(C)c3ccc(S(N)(=O)=O)cc3)cc2OC)cc1` (stereo not shown), 9.08%; that for `CC(C(=O)N1CCCCC1)N1C(=O)c2ccccc2C1=O` (stereo not shown), 6.9%. The result for `COc1ccc(-c2cc3ccccc3[nH]2)cc1` reads 9.14%; that for `Cc1cccc(C(=O)N2CC(=O)Nc3ccc(F)cc3C2c2ccc(F)cc2)c1` (stereo not shown), 5.39%. As to `CC(C)Cc1nnc(NC(=O)CCC(=O)N2CCCCC2)s1`, the “hERG current change (%, negative = inhibition) at 1uM” value is listed as 15.1%. Regarding `O=[N+]([O-])c1c(NCCCO)cc(N2CCCCCC2)c2nonc12`, the “hERG current change (%, negative = inhibition) at 1uM” value came to 13.5%. For `CN(CC(=O)Nc1ccccc1Br)C(=O)c1ccccc1-c1nc2ccccc2s1` the value was 1.31%; for `CCOC(=O)C1=C(c2ccccc2)OC(N)=C(C#N)C1c1ccco1` (stereo not shown), 14.6%; for `CC(=O)Nc1nc(N)n(-c2ccccc2)n1`, 4.98%.

Consider `CCOC(=O)c1c(C)n(C(=O)c2ccco2)c(=O)n1C(=O)c1ccco1`, for which the “hERG current change (%, negative = inhibition) at 1uM” value was found to be 3.11%. For `O=C(Cc1ccccc1)Nc1ccc(NC(=O)c2ccc(Br)cc2)cc1` the value was 17.1%; for `COc1ccc(C(=O)CSc2nnc(-c3cnccn3)n2Cc2ccco2)cc1`, -0.832%; for `O=C(CCC(=O)NC1CCCCC1)Nc1cccnc1`, 13.7%. With `O=C(NCCCN1CCCC1=O)c1cc2ccccc2o1`, the “hERG current change (%, negative = inhibition) at 1uM” value is 8.38%. For `Cc1cccc(NC(=O)c2sccc2-n2cccc2)c1C` the value was 13%; for `Cc1ccc(S(=O)(=O)NCCn2nc(C)nc2C)cc1`, 16.5%. The result for `CCCC(C)(C)NC(=O)CCCCC(=O)NC(C)(C)CCC` reads 5.58%.

Take `O=C(Cc1csc(-c2ccc(Cl)cc2)n1)Nc1cccc(S(=O)(=O)NC2=NCCC2)c1`: the “hERG current change (%, negative = inhibition) at 1uM” value is 14.8%. On to `C[C@]12CCC(=O)C=C1CC[C@@H]1C2CC[C@]2(C)C(=O)CCC12` (stereo partly shown), for which the “hERG current change (%, negative = inhibition) at 1uM” value is on record as 9.07%. `Fc1cccc(CCN2C(=S)NC[C@@H]2Cc2ccccc2)c1`: the “hERG current change (%, negative = inhibition) at 1uM” value is -11.6%. For `CC(OC(=O)c1ccccn1)C(=O)Nc1ccc2c(c1)OCCO2` (stereo not shown) the value was 6.36%; for `O=C(c1cnc2ccccc2n1)N1CCN(c2ccc(C(F)(F)F)cn2)CC1`, 2.54%. The result for `Cc1[nH]c(=O)[nH]c(=O)c1/C=N/NC(=O)[C@@H](N)CC(C)C.Cl` reads -1.91%; that for `O=C(c1ccc(-c2ccccc2Cl)o1)N1CCN(c2ccccc2O)CC1`, 5.91%.

On to `Cl.O=C(CCS(=O)(=O)c1ccccc1)N(CCCN1CCOCC1)c1nc2c(F)cccc2s1`, for which the “hERG current change (%, negative = inhibition) at 1uM” value worked out at 7.36%. For `C=CCNC(=S)NS(=O)(=O)c1cccs1` the value was 9.12%; for `NC(N)=NC(N)=Nc1cccc2ccccc12`, 5.63%; for `COC(=O)[C@H](CCSC)NC(=O)NCc1ccccn1`, 6.44%. Regarding `Cc1ccc(S(=O)(=O)Nc2ccccc2C(=O)N2CCN(C)CC2)cc1`, the “hERG current change (%, negative = inhibition) at 1uM” value was 3.41%.

`COCC(=O)N1CCCN(c2nc3c(C)cccc3cc2C#N)CC1`: the “hERG current change (%, negative = inhibition) at 1uM” value was found to be 3.26%.

As for `CCCCCC1CCC(C(=O)NNC(=S)NCC)CC1` (stereo not shown), the “hERG current change (%, negative = inhibition) at 1uM” value was 4.38%. The result for `O=C(Nc1cccc(Cl)c1)N1CCN(c2ncccn2)CC1` reads 6.58%; that for `CCOc1ccc(C2/C(=C(\O)c3ccc4c(c3)OCCO4)C(=O)C(=O)N2CCCN2CCOCC2)cc1` (stereo not shown), 12.7%. For `CC(C)(C)NC(=O)C(c1ccco1)N(Cc1ccc(F)cc1)C(=O)c1snc(C(N)=O)c1N` (stereo not shown) the value was -6.09%. For `O=C(Nc1ccc(S(=O)(=O)Nc2ccccn2)cc1)c1cccc(Cl)c1` the value was 17.2%; for `Cc1ccc(C(=O)N2CCN(S(=O)(=O)c3ccccc3C#N)CC2)cc1S(=O)(=O)N1CCOCC1`, 4.15%.
